Several values for one entry are separate records, joined by “and”; a condition that tells them apart may be missing. Identical values can stand only once. Out of some 110,000 compounds screened, about 230 (0.21%) showed an effect of 50% or more. Some of the results follow.
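Note: 30 min substrate incubation versus DMSO and 10 µM JCP410 controls.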

Chain of DPAP1 (Q8IIJ9 whole entry, looked up): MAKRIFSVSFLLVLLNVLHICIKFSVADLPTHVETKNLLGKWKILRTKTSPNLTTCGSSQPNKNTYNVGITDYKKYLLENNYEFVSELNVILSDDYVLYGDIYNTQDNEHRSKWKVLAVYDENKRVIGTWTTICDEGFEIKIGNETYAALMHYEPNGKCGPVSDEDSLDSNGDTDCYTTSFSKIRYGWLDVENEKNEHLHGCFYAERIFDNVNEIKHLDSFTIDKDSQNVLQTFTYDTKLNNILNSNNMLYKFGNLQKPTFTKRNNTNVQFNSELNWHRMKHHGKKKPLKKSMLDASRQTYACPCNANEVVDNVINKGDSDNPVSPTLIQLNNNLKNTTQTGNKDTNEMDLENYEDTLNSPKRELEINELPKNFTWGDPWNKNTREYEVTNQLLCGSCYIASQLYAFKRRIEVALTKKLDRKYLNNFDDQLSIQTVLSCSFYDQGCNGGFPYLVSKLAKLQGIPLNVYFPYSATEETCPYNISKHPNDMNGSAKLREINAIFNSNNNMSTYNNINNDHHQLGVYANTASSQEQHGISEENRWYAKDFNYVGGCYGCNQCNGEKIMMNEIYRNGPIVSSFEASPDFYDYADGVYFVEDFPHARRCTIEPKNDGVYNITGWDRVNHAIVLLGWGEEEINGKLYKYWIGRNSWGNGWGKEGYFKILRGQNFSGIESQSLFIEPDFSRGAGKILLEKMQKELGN

The test has as its target DPAP1 (Plasmodium falciparum, UniProt Q8IIJ9). In words: primary screen, percent inhibition; read by cleavage of a fluorogenic dipeptide substrate; higher = more effect of the substance. Also noted: species or system P. falciparum D10 trophozoite lysates; single well.
For `Clc1ccccc1NCn1cnc2ccccc21`, the “% Inhibition @ 10 uM” value is -8.95%.
As to `CCCCC(=O)C1=C(NC)CC(C)(C)CC1=O`, the “% Inhibition @ 10 uM” value amounted to 0.121%.
For `CCc1ccc(C(=O)NC2=NC(=O)CC(c3cccc(F)c3)N2)cc1` (centres unmarked) the value was -3.44%; for `CCOC(=O)c1c(S(=O)(=O)N2CCN(Cc3ccc4c(c3)OCO4)CC2)c(C)n(C)c1C`, 2.58%.
Regarding `CCN1CCN(c2ncnc3c2c(-c2ccccc2)cn3-c2cccc(C)c2)CC1`, the “% Inhibition @ 10 uM” value is reported as -1.62%.
With `O=C(Nc1ccccc1C(=O)O)c1cc2ccccc2o1` the figure was -2.37%.
With `COc1cc(C(=O)Nc2ccccc2Cl)cc(OC)c1OC` the figure was -3.34%; with `CCCc1[nH]nc2c1C1(CCN(C(=O)c3ccccc3)CC1)C(C#N)=C(N)O2`, 7.04%.
For `O=C(CC1(O)C(=O)N(Cc2ccc(Cl)cc2)c2ccccc21)c1ccc(F)cc1` (centres unmarked) the value was 5.77%; for `CCn1c2ccccc2c2cc(CNc3ccc(C)cc3)ccc21`, 2.91%; for `COc1cccc(C2C(C#N)=C(N)Oc3cc(C)n(Cc4cccnc4)c(=O)c32)c1OC` (centres unmarked), -3.16%.
`CCCN1CCN(C(=O)C2COc3ccccc3O2)CC1` (centres unmarked): the “% Inhibition @ 10 uM” value was -4.74%.
For `CCN1CCN(C(C)CC(C)(C)c2ccc(C)o2)CC1` (centres unmarked) the value was 4.57%.
With `O=C(Nc1ccccc1NC(=O)c1ccc2c(c1)OCO2)c1ccc2c(c1)OCO2` the figure was -3.45%; with `Cc1c(C(=O)Nc2cc(-c3cccc(F)c3)no2)sc2nc3n(c(=O)c12)CCCCC3`, -0.205%.
On to `CCOc1ccc(NC(=O)Nc2cccc3ccccc23)cc1`, for which the “% Inhibition @ 10 uM” value is listed as -2.18%.
With `CC(C)NC(=O)Cn1ncc2c3ccccc3n(C)c2c1=O` the figure was -0.23%; with `O=C(NCCC1=CCCCC1)c1ccc(CS(=O)(=O)c2ccc(Cl)cc2)o1`, -4.53%.
With `COc1ccccc1NC(=O)Nc1cccc2ccccc12` the figure was -3.94%; with `Cc1ccc(C(=O)NCCCNCCCNC(=O)c2ccc(C)nc2)cn1`, -9.83%.
For `O=C1S/C(=C\c2ccco2)C(=O)N1Cc1ccc(F)cc1` the value was 0.121%; for `CCN(CC)C(=O)CN(c1cccc(OC)c1)S(=O)(=O)c1ccccc1`, 1.59% and -5.07%.
As to `CC(=O)Nc1ccc(N(C)C(C)=O)cc1`, the “% Inhibition @ 10 uM” value is -11.3%.
For `O=C(c1ccc([N+](=O)[O-])o1)N1CCOCC1` the value was -0.0217%.
Regarding `Nc1nc2n(n1)C(=O)CC(c1ccccc1)N2` (centres unmarked), the “% Inhibition @ 10 uM” value is 0.0289%.
For `O=C(NC1CCCCCC1)C1c2ccccc2C(=O)N1CCC1=CCCCC1` (centres unmarked) the value was -0.668%; for `CCSc1ncc(Cl)c(C(=O)N(Cc2ccc(Cl)cc2)C2CCS(=O)(=O)C2)n1` (centres unmarked), -1.11%; for `Cc1cc(C)n2nc(SC(C)C(=O)NCc3ccccc3Cl)nc2n1` (centres unmarked), -4.06%.
Regarding `Cc1ccc(C)c(S(=O)(=O)/N=C2\C=CC(=O)c3ccccc32)c1`, the “% Inhibition @ 10 uM” value is reported as 4.74%.
With `COc1ccccc1OCC(O)Cn1cnc2ccccc21` (centres unmarked) the figure was -11%.
With `CCn1c(C(=O)O)c(CNC2CCCCCC2)c2ccc(C)cc21` the figure was -2.97%; with `CCCCc1nn2c(C)c(-c3ccc(Br)cc3)nc2s1`, -2.71%; with `CCO/C(O)=C1\C(=O)CCn2c1nc1ccccc12`, -2.91%.
For `CCCc1nn(C)c(C(=O)Nc2ccccc2)c1Cl` the value was 0.343%; for `C=Cc1ccc(Cn2c(C)c(CNCC(C)c3ccccc3)c(C(=O)O)c2C)cc1` (centres unmarked), -3.67%; for `CCCCN(C1CCN(CC)CC1)S(=O)(=O)c1c(C)[nH]c(C)c1C(=O)OCC`, -5.69%.
`COc1ccccc1OCCn1cc(/C=C2/C(=N)N3OC(C)=CC3=NC2=O)c2ccccc21`: the “% Inhibition @ 10 uM” value was -1.43%.
For `COc1ccc(CN2CNc3nc4ccccc4n3C2)cc1` the value was 3.73%.
Turning to `O=C(CCc1nc2cccnc2n1-c1ccccc1)NCc1ccc(CN2CCOCC2)o1`, the “% Inhibition @ 10 uM” value was -5.25%.
With `Cc1ccc(NC(=O)CN(c2ccc(F)cc2)S(=O)(=O)c2ccccc2)c(C)c1` the figure was 6.65%; with `O=C(O)C1C2c3ccccc3C(c3ccccc32)C1C(=O)NCc1ccccc1` (centres unmarked), 1.64%; with `COc1ccc(-c2nc3cc(Br)cnc3[nH]2)cc1`, 2.4%.
For `CCN(CC)CCCNC(=O)Cn1cc2c(n1)-c1c(oc(C(=O)N3CCOCC3)c1C)CC2` the value was 5.69%; for `Cc1ccc(S(=O)(=O)N2CCN(C(=O)c3ccc(Br)cc3)CC2)c(C)c1`, 1.52%.
For `Cc1cc(=O)n2nc(N3CCC(C(=O)NCCCN4CCOCC4)CC3)sc2n1` the value was 3%.
With `Cn1c(C(=O)NCc2cccnc2)cc2c(=O)n3ccccc3nc21`, the “% Inhibition @ 10 uM” value was 2.4%.
Turning to `O=S(=O)(Nc1ccccc1F)c1ccc(F)cc1`, the “% Inhibition @ 10 uM” value is given as 0.815%.
For `Cc1ccc(CNC(=O)CN(c2cccc3ccccc23)S(C)(=O)=O)cc1` the value was -6.05%; for `O=C(NCc1ccc(Cl)cc1)c1cnn2ccccc12`, -6.52%.
For `CN(C)CCN(C(=O)c1nc2ccccc2s1)c1nc2ccc(Cl)cc2s1` the value was -4.16%.
